# The campaign covered roughly 350,000 compounds. About 260 (0.074%) were called active. This list was built around the results that the source calls inconclusive (neither active nor inactive); the mix of calls is not that of the screen. The call rests on the fitted dose curve; in most records, active means well fitted inhibition curve with a large enough effect; inconclusive means small, poorly fitted or top-dose-only effect; inactive means no such curve, though single readings can be large or run the other way. Potencies beside an inconclusive call are fits to weak or partial responses and may not hold up.
# Biological target: Ferritin light chain (Equus caballus) (UniProt P02791)
# UniProt P02791, sequence (P02791 whole entry, looked up): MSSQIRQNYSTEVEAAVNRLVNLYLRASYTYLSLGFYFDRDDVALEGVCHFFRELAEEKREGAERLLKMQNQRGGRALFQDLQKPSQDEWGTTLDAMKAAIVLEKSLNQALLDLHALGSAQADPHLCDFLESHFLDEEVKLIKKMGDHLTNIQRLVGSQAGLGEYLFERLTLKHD
# Assay: qHTS Assay for Identification of Novel General Anesthetics; further: nearly all actives have a fitted effect of over 20% in size
# Conditions: apoferritin/1-aminoanthracene competitive binding, fluorescence; series mostly up to 77.5 µM
# Procedure, shortened: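 Concentration-response curves derived by four-parameter Hill fitting of normalized fluorescence, where compounds displaced 1-AMA from 10 uM horse apoferritin following a brief 10 min room-temperature incubation; propofol titration acted as positive control.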
# Potency means the concentration at half of the fitted maximal effect; tags describe the fitted curve by direction and shape.
row,SMILES,Potency
1,O=C(Nc1cccc(O)c1)c1ccc([N+](=O)[O-])cc1Cl,inactive
2,CC(=O)Nc1ccc(Oc2ccc([N+](=O)[O-])cc2Cl)cc1,active: 15.8 µM
3,COc1cc(CCC(=O)OCC(=O)N2CCc3ccccc32)cc(OC)c1OC,inactive
4,O=C(CNC(=O)c1ccccc1F)N/N=C\C=C\c1ccccc1,"inconclusive: 7.94 µM [inhibitor, partial curve]"
5,Nc1ncn(C23CC4CC(CC(C4)C2)C3)n1,"inconclusive: 17.8 µM [inhibitor, partial curve]"
6,Cc1ccc(CCNC(=O)c2cc3ccccn3n2)cc1,inactive
7,O=C(NCc1ccc2c(c1)OCO2)C(=O)NC1CCCCC1,"inconclusive: 1.26 µM [inhibitor, full curve, poor fit]"
8,CNC(=O)NCC12CC3CC(CC(C3)C1)C2,"inconclusive: 14.1 µM [inhibitor, partial curve]"
9,O=C(NCc1ccccn1)c1nc(-c2ccc(C(F)(F)F)cc2)no1,"inconclusive: 28.2 µM [inhibitor, partial curve]"
10,O=C(Cn1nnc(-c2ccccc2)n1)N/N=C/c1cccc([N+](=O)[O-])c1,"inconclusive: 31.6 µM [inhibitor, partial curve]"
11,CCCOc1ccc(CC2C(=O)Nc3ccc(Br)cc32)cc1 (centres undefined),"inconclusive: 3.55 µM [inhibitor, full curve]"
12,CC(C)CC(NC(=O)c1ccc(Cl)cc1)C(=O)OCC(=O)c1ccc2c(c1)NC(=O)CO2 (centres undefined),"inconclusive: 12.6 µM [inhibitor, partial curve]"
13,CC(C)C(OC(=O)CCC(=O)Nc1nccs1)C(=O)NC1CCCCC1 (centres undefined),"inconclusive: 28.2 µM [inhibitor, partial curve]"
14,COc1ccc(C(=O)c2ccccc2)cc1Br,"inconclusive: 25.1 µM [inhibitor, partial curve]"
15,CN1CCCC(OC(=O)c2cccc(Br)c2)C1 (centres undefined),"inconclusive: 50.1 µM [inhibitor, single point]"
16,CC(C)c1ccc(NC(=O)CSC2=Nc3ccccc3C3=NC(CCC(=O)NCc4cccs4)C(=O)N23)cc1 (centres undefined),"inconclusive: 10 µM [inhibitor, partial curve]"
17,CCOc1ccc(/C=C2\SC(=O)N(c3ccc(O)cc3)C2=O)cc1OC,"inconclusive: 17.8 µM [inhibitor, partial curve]"
18,Cc1ccc(C(C)C)c(OCC(=O)Nc2cccc(S(=O)(=O)NC3=NCCCCC3)c2)c1,inactive
19,COc1ccccc1/C=C/C=N/NC(=O)Cc1cccs1,"inconclusive: 31.6 µM [inhibitor, partial curve]"
